# Source: PubChem BioAssay (NCI)
#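 Briefly, cells in 96-well plates were exposed to five compound concentrations for 48 h, and endpoints were estimated by linear interpolation. GI50 = concentration required for 50% inhibition of growth. At the TGI there is no net growth.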
# Tested on: NCI-H322M lung
# Test: growth of human tumour cells (NCI), 48 h
Structure (SMILES),TGI,GI50
Fc1ccc(C(OCCN2CCC3CCC(C2)N3CCCc2ccccc2)c2ccc(F)cc2)cc1 (stereo unspecified),23.1 µM,–
O=C(O)CCC(=O)Nc1ccc2c(c1)S(=O)(=O)N(CC(=O)O)C2=O,> 100 µM,–
CCc1cc(Cc2cc(CC)c(NC(=O)C3=CC(=O)CC(c4ccc(OC)cc4)O3)c(CC)c2Cl)c(Cl)c(CC)c1NC(=O)C1=CC(=O)CC(c2ccc(OC)cc2)O1 (stereo unspecified),75.3 µM,–
S=C(Nc1ccccc1)c1ccccn1,> 100 µM,> 100 µM
Cc1[nH]c2ncn(/N=C/c3ccccc3)c(=N)c2c1Cc1ccccc1,> 100 µM,–
CCOC(=O)/C(C#N)=C(O)/C(=C/c1ccccc1Cl)NC(=O)c1ccccc1,> 100 µM,–
COc1cc2c(/C=C3/C(=O)Nc4ccccc43)c(Cl)n(Cc3ccccc3)c2cc1C,> 100 µM,> 100 µM
CC(=NNC(=S)Nc1ccccc1C)c1cccc(C(C)=NNC(=S)Nc2ccccc2C)n1,56.9 µM,–
O=C(Cc1ccccc1)N/N=C(/CCN1CCCC1)CC(c1ccccc1)c1c(O)c2ccccc2oc1=O (stereo unspecified),> 100 µM,–
Nc1ncc2c(n1)-c1ccccc1OC2NC1CC1 (stereo unspecified),> 100 µM,–
CC(C#N)Nc1ccc(Oc2ccc(C(C)(C)c3ccc(Oc4ccc(NC(C)C#N)cc4)cc3)cc2)cc1 (stereo unspecified),> 100 µM,–
CSC(=S)N(C)c1nc(=[N+](C)C)ss1,> 100 µM,–
O=C(/C=C/c1ccc(O)c(O)c1)NC(CO)C(=O)O (stereo unspecified),> 100 µM,–
O=C(CNC(=O)OCc1ccccc1)NCCCCC(NC(=O)OCc1ccccc1)C(=O)O (stereo unspecified),> 100 µM,–
O=S(=O)(CC1=NC2C=CC=CC2N=C1)NCc1ccccc1 (stereo unspecified),> 100 µM,–
CCC(=O)N(c1ccccc1)C(C)CN1CCC(O)(c2ccccc2)CC1 (stereo unspecified),> 100 µM,–
COC(=O)c1nc(-c2ccc(Cl)c(Cl)c2)nc2ccccc12,> 100 µM,–
Nc1nc(-n2cccn2)nc(-n2cccn2)c1Br,> 100 µM,> 100 µM
COC(=O)c1c/c(=N\NC(=O)CC(=O)Nc2ccccc2Cl)c2ccccc2o1,> 100 µM,–
O=[N+]([O-])c1cccc(-c2nc3sccn3c2-c2ccnc(NCCCNS(=O)(=O)c3ccc(F)cc3)n2)c1,> 100 µM,3.21 µM
O=C(Nc1ccc(C(F)(F)F)cc1[N+](=O)[O-])C(=O)C(C(=O)c1ccc2ccccc2c1)C1OC(=O)c2ccccc21 (stereo unspecified),16.4 µM,–
Cn1c2ccccc2c2c(=O)n(CCCC(=O)NCC(=O)OC(=NC3CCCCC3)NC3CCCCC3)c3c(-c4ccccc4)nnn3c21,> 100 µM,> 100 µM
O=C(Nc1ccccc1)N1CCNC1=S,> 100 µM,–
CC(C)(C)Cn1c(N)nc2ccc(-c3[nH]c(C(C)(C)C)nc3-c3ccc(F)cc3)nc21,20.3 µM,5.64 µM

Structure (SMILES),TGI,GI50
CN(CCO)CC(=O)CC(O)(C(F)(F)F)C(F)(F)F,> 100 µM,–
CN(C(=O)C1=CCCCCC1)c1ccccc1I,> 100 µM,–
O=C(O)Cc1cc(=O)oc2cc(O)c(Cl)cc12,> 100 µM,–
CCN(CC)CCCCC1CCN(CC(=O)N2c3ccccc3NC(=O)c3ccccc32)CC1,> 100 µM,–
CCCCCCCCCCCCCCCC(=O)NC1CCc2cc(O)c(O)c(O)c2-c2ccc(SC)c(=O)cc21 (stereo unspecified),28.3 µM,–
c1ccc(C2=NN(c3ccccc3)C3(S2)SC(c2ccccc2)(c2ccccc2)c2ccccc23)cc1 (stereo unspecified),> 100 µM,–
COc1ccc(NS(=O)CCc2ccccc2)cc1 (stereo unspecified),> 100 µM,–
O=c1cc(-c2ccc(O)c(O)c2)oc2cc(OC3OC(CO)C(O)C(O)C3O)cc(O)c12 (stereo unspecified),> 100 µM,–
CSc1nc(=S)[nH]c2n[nH]c(C)c12,> 100 µM,–
O=c1cc/c(=N\Nc2ccccc2)c(=O)/c1=N/Nc1ccccc1,> 50 µM,> 50 µM
O=C(O)CC(Cc1ccc2c(c1)OCO2)C(=O)O (stereo unspecified),> 100 µM,–
Cc1ccc(-c2c(C#N)c(-c3ccc(N(C)C)cc3)c(C#N)c(=O)n2NS(=O)(=O)c2ccccc2)cc1,> 100 µM,–
OCCNc1nc(NCCO)nc(Nc2ccc(C3=NN(c4cc(Cl)cc(Cl)c4)C(c4ccc(Cl)cc4)C3)cc2)n1 (stereo unspecified),6.36 µM,2.46 µM
COC(=O)c1c2c(c(C)[n+]([O-])c1C)C(=O)C=C(NCc1ccc(Cl)cc1)C2=O,1.81 µM,0.411 µM
N#Cc1c(NC(=O)c2cccs2)[n+]([O-])c2ccccc2[n+]1[O-],> 100 µM,> 100 µM
CCc1ccccc1NC(=O)CCc1nc(=S)[nH][nH]1,> 100 µM,–
COC(=O)/C=C/c1cc(OC)c2c(c1)C(C(=O)OC)C(c1ccc(OC)c(OC)c1)O2 (stereo unspecified),> 100 µM,–
COc1ncnc2c(NC3OC(CO)C(O)C3O)ncnc12 (stereo unspecified),0.824 µM,–
C/C(=N\NC(=S)N(C)C)c1ncc[nH]1,> 100 µM,–
CC(=O)Nc1c(C)cc(OCC(=O)O)cc1C,> 100 µM,–
O=C(CNC(=O)c1cccc2ccccc12)Nc1ccccc1Oc1cccc(O)c1,> 25 µM,10.8 µM
O=C1CCC(c2nc3ccccc3o2)C(=O)N1 (stereo unspecified),> 100 µM,–
Cn1c(=O)nc2n(CCO)c(-c3ccccc3)c(-c3ccccc3)nc-2c1=O,> 100 µM,–
O=C1C(NCCc2cc(Br)c(O)c(Br)c2)=CC(=O)c2ncccc21,6.69 µM,–

Structure (SMILES),TGI,GI50
Nc1ccc(N=Nc2ccc(/C=C/c3ccc(N=Nc4ccc(N)c5ccc(S(=O)(=O)O)cc45)cc3S(=O)(=O)O)c(S(=O)(=O)O)c2)c2cc(S(=O)(=O)O)ccc12,> 100 µM,–
N#Cc1cnn2c1n[n+]([O-])c1ccc(Cl)cc12,10.2 µM,–
CCCCCCC(N)(CCCCCC)C(=O)Nn1c(C)ccc1C,> 100 µM,–
COc1ccc2c(c1)c(Cc1c(C)n(C)c3ccc(OC)cc13)c(C)n2C,> 100 µM,–
Cc1ccc(S(=O)(=O)N(c2ccccc2F)C2CCCCC2O)cc1 (stereo unspecified),> 100 µM,–
COc1ccc(NC2=C(Sc3nc(C)cc(C)n3)C(=O)N(Cc3ccccc3)C2=O)cc1Cl,> 160 µM,> 160 µM
CCCCCCCCCC(=O)OCC1(CO)C/C(=C/CC(C(C)C)C(C)C)C(=O)O1 (stereo unspecified),> 100 µM,–
CN(C)c1ccc(C(C#N)N2CCCN(C(C#N)c3ccc(N(C)C)cc3)C2c2ccc(N(C)C)cc2)cc1 (stereo unspecified),> 100 µM,–
O=C1/C(=C/c2cccc([N+](=O)[O-])c2)CCCc2ccccc21,31.3 µM,–
C1=CCN(c2ccccc2)CC1,> 100 µM,–
CCOc1ccc(C2c3[nH]c4ccccc4c3CCN2C(=O)c2cccs2)cc1 (stereo unspecified),> 100 µM,–
CCCOC(=O)c1cc(C(=CCC[C@H]2CC[C@@]3(C)[C@@H](CC[C@@H]4[C@@H]3CC[C@]3(C)[C@@H](C(C)CCCC(C)C)CC[C@@H]43)C2)c2cc(Cl)c(O)c(C(=O)OCCC)c2)cc(Cl)c1O (stereo partly specified),> 50 µM,–
CCOP(=O)(CS(C)=O)O[C@@H]1C[C@H](C)CC[C@H]1C(C)C (stereo partly specified),20.7 µM,–
N#Cc1c(-c2ccccc2)c(C#N)c(=O)n(NS(=O)(=O)c2ccccc2)c1O,> 100 µM,–
O=c1nc2n(CCO)c(-c3ccccc3)c(-c3ccccc3)nc-2c(=O)[nH]1,> 100 µM,–
CC1CCC2(OC1)OC1CC3C4CC=C5CC(OC6OC(CO)C(OC7OC(C)C(OC8OC(C)C(O)C(O)C8O)C(O)C7O)C(O)C6OC6OC(C)C(O)C(O)C6O)CCC5(C)C4CCC3(C)C1C2C (stereo unspecified),1.82 µM,–
COc1cc(C)cc2c1OC(c1ccccc1)CC2=O (stereo unspecified),> 100 µM,> 100 µM
N#CCCc1nc2ccc(Br)cc2c(=O)n1-c1ccc(O)c([N+](=O)[O-])c1,31.5 µM,–
CC(C)=CCC/C(C)=C/Cc1cc(/C=C/c2cc(O)c(CC=C(C)C)c(O)c2)cc(O)c1O,23.6 µM,–
Cc1nc2ccccc2nc1NS(=O)(=O)c1ccc(N)cc1,> 100 µM,–
CCN(CC)CCC(=O)Nc1cccc2c1C(=O)c1c(c(O)c3ccccc3c1O)C2=O,> 100 µM,34.1 µM
CCCCCCN1C(=O)/C(=c2\sc3n(c2=O)C2C(NN=3)N(CC)C(=O)N2CC)c2ccccc21 (stereo unspecified),> 50 µM,1.6 µM
CCN(CC)c1ccc(/C=N/NC(=O)c2ccc(Nc3ccnc(C(F)(F)F)c3)cc2)c(O)c1,> 39.3 µM,0.31 µM
Cc1ccccc1C(C#N)/C(=N/NC(=O)c1cc2ccccc2cc1O)C(=O)Nc1cccc(Cl)c1 (stereo unspecified),> 100 µM,–

Structure (SMILES),TGI,GI50
C=C1C(=O)O[C@H]2[C@H]1CC/C(COC(=O)NCCc1ccc(OC)cc1)=C\CC[C@@]1(C)O[C@@H]21,26.1 µM,12.6 µM
CC(C)=CC(=O)Cc1nc2ccccc2[nH]c1=O,> 100 µM,–
COc1ccc(Cl)cc1N1C(=O)C(Cl)=C(Nc2cccc(O)c2)C1=O,> 100 µM,29.3 µM
C/C(C=O)=C1\C(O)C[C@]1(C)C1CC(C)(C)CC1O (stereo partly specified),> 100 µM,–
Cc1ccc2c(c1)C(C1Cc3c(C)cccc3C1=O)OC2=O (stereo unspecified),> 100 µM,–
Clc1ccc(C2=Nc3ccccc3SC(c3ccc(Cl)c(Cl)c3)C2)c(Cl)c1 (stereo unspecified),38.8 µM,–
Nc1cc(N)c2nc(-c3ccccc3)c(Nc3ccc(F)cc3)nc2c1,35.6 µM,17 µM
C=CCOc1cc2c(cc1C(C)c1ccc(OC)cc1)OCO2 (stereo unspecified),> 100 µM,–
CCOC(=O)C1CCC/C1=N\N=C(N)N (stereo unspecified) (tested in a mixture with another compound),> 100 µM,–
CCOC(=O)CCc1c(C(=O)OCC)[nH]c(/C=C2/NC(=O)C(C)=C2CC)c1C,> 100 µM,–
O=C1/C(=C/c2cccc([N+](=O)[O-])c2)COc2ccccc21,> 100 µM,–
COc1ccc(/C=C/C(=O)NCC(NC(=O)/C=C/c2ccc(OC)c(OC)c2)C(=O)O)cc1OC (stereo unspecified),> 100 µM,–
C/C(C=O)=N\Nc1cc(C)c2ccccc2n1,41.5 µM,–
COC(=O)C1=CN(CC2=CC(=O)C(C)=CC2=O)C=C(C(=O)OC)C1c1cccc(OC)c1OC,> 75.9 µM,23.7 µM
c1ccc(-c2nc(Nc3ccc(-c4nc5ccccc5[nH]4)cc3)nc(N3CCOCC3)n2)cc1,3.31 µM,1.65 µM
O=C(CC(=O)Nc1ccc(Cl)cc1)NNCC(=O)Nc1nc(-c2ccccc2)cs1,> 100 µM,–
Cc1c(CCN=P(c2ccccc2)(c2ccccc2)c2ccccc2)c(=O)n2c([nH]c3ccccc32)c1C#N,> 10 µM,–
CCOC(=O)c1cc2c(cc1Cl)SC(N(c1ccc(F)cc1)S(=O)(=O)c1ccc(OC)cc1)=NS2(=O)=O,93.6 µM,26.8 µM
CCCOc1ccc(/C=C/c2cc(OC)c(OC)c(OC)c2)cc1,> 100 µM,–
O=C(Nc1ccccc1Cl)c1cnc2ccc(C3CCNCC3)cn12,> 100 µM,4.67 µM
COc1ccc2c(c1)[nH]c(=O)c1c3cccnc3cn21,49.7 µM,1.24 µM
N#C/C(=C\c1ccc(Cl)cc1)c1nc2ccccc2c(=O)[nH]1,> 100 µM,–
CCCCOC(=O)/C(CC(=O)C=C(C)C)=N\NS(=O)(=O)c1ccc(C)cc1,> 100 µM,–
COc1cc2c(cc1OCCCCCOc1cc(-c3ccc(F)cc3)nc(C)n1)N=C[C@@H]1CCCN1C2=O,> 88.1 µM,> 53.6 µM
